Reference: the supplement of paper PMC10369915
The list shows a part of the results. No stated cut-off is given here; in the data, active = 3.2 or more and inactive = the rest. The signal is at background level for most entries.

Target: SHP2 C-SH2 domain E139D
Assay: enrichment score (SH2-bound / input frequency) (ratio); bacterial display of known human phosphotyrosine sites (pTyr-Var adds point mutants) read by sequencing; higher = stronger binding; tyrosines were phosphorylated by kinases first
Settings: peptide library: pTyr-Var
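Further: displayed peptides selected on beads carrying the immobilized SH2 domain, with library peptides lacking any tyrosine serving as negative controls.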

Row | Binder | enrichment score
1 | QCTSHYPEHVC [SART3_Y541_D540H] | inactive: 1.36
2 | LVMFTYAIFGM [SCN1A_Y1684_I1683T] | inactive: 1.7
3 | LVMFIYDIFGM [SCN1A_Y1684_A1685D] | active: 3.96
4 | LVMFIYAISGM [SCN1A_Y1684_F1687S] | inactive: 3.02
5 | MSNSAYVKREV [SCN1A_Y1694_F1692S] | inactive: 0.669
6 | NKVFTYIFIME [SCN4A_Y1074_D1069N] | inactive: 1.37
7 | IIQRAYRRHLL [SCN1A_Y1926] | inactive: 0.334
8 | LVMFISAIFGM [SCN1A_Y1684_Y1684S] | inactive: 2.34
9 | DEQKKYYNAMK [SCN5A_Y1494_E1489D] | inactive: 0.663
10 | QCTSDYPEHVC [SART3_Y541] | inactive: 0.894
11 | ATLDVYNPFET [SCAMP3_Y41] | inactive: 0.769
12 | ESTPLYPMLFG [SCLY_Y280_F276S] | inactive: 1.02
13 | HVLEEYKPKQG [SAXO2_Y37_P34L] | inactive: 0.723
14 | GSESDYIIMPN [SCARB1_Y133_V135I] | inactive: 0.477
15 | HVPEEYKPKQG [SAXO2_Y37] | inactive: 0.774
16 | RPSRQYATRDV [SCAMP3_Y35_L38R] | inactive: 0.211
17 | ATRDVYNPFET [SCAMP3_Y41_L38R] | inactive: 0.842
18 | DEEPPHRGPFC [SASH1_Y551_Y551H] | inactive: 0.605
19 | LVMFIYAIFGM [SCN1A_Y1684] | inactive: 3.16

Target: SHP2 C-SH2 domain wild-type
Assay: as above
Settings: peptide library: pTyr-Var

Row | Binder | enrichment score
20 | QCTSHYPEHVC [SART3_Y541_D540H] | inactive: 1.2
21 | LVMFTYAIFGM [SCN1A_Y1684_I1683T] | inactive: 1.88
22 | LVMFIYDIFGM [SCN1A_Y1684_A1685D] | active: 3.99
23 | LVMFIYAISGM [SCN1A_Y1684_F1687S] | active: 3.71
24 | MSNSAYVKREV [SCN1A_Y1694_F1692S] | inactive: 0.667
25 | NKVFTYIFIME [SCN4A_Y1074_D1069N] | inactive: 2.15
26 | IIQRAYRRHLL [SCN1A_Y1926] | inactive: 0.24
27 | LVMFISAIFGM [SCN1A_Y1684_Y1684S] | inactive: 2
28 | DEQKKYYNAMK [SCN5A_Y1494_E1489D] | inactive: 0.554
29 | QCTSDYPEHVC [SART3_Y541] | inactive: 0.63
30 | ATLDVYNPFET [SCAMP3_Y41] | inactive: 0.722
31 | ESTPLYPMLFG [SCLY_Y280_F276S] | inactive: 0.985
32 | HVLEEYKPKQG [SAXO2_Y37_P34L] | inactive: 0.824
33 | GSESDYIIMPN [SCARB1_Y133_V135I] | inactive: 0.429
34 | HVPEEYKPKQG [SAXO2_Y37] | inactive: 0.674
35 | RPSRQYATRDV [SCAMP3_Y35_L38R] | inactive: 0.297
36 | ATRDVYNPFET [SCAMP3_Y41_L38R] | inactive: 0.826
37 | DEEPPHRGPFC [SASH1_Y551_Y551H] | inactive: 0.473
38 | LVMFIYAIFGM [SCN1A_Y1684] | inactive: 2.53

Target: SHP2 N-SH2 domain L43F
Assay: as above
Settings: peptide library: pTyr-Var

Row | Binder | enrichment score
39 | QCTSHYPEHVC [SART3_Y541_D540H] | inactive: 1.24
40 | LVMFTYAIFGM [SCN1A_Y1684_I1683T] | inactive: 1.62
41 | LVMFIYDIFGM [SCN1A_Y1684_A1685D] | inactive: 3.06
42 | LVMFIYAISGM [SCN1A_Y1684_F1687S] | active: 3.77
43 | MSNSAYVKREV [SCN1A_Y1694_F1692S] | inactive: 0.657
44 | NKVFTYIFIME [SCN4A_Y1074_D1069N] | inactive: 1.76
45 | IIQRAYRRHLL [SCN1A_Y1926] | inactive: 0.244
46 | LVMFISAIFGM [SCN1A_Y1684_Y1684S] | inactive: 2.12
47 | DEQKKYYNAMK [SCN5A_Y1494_E1489D] | inactive: 0.536
48 | QCTSDYPEHVC [SART3_Y541] | inactive: 0.533
49 | ATLDVYNPFET [SCAMP3_Y41] | inactive: 0.793
50 | ESTPLYPMLFG [SCLY_Y280_F276S] | inactive: 0.923
51 | HVLEEYKPKQG [SAXO2_Y37_P34L] | inactive: 0.835
52 | GSESDYIIMPN [SCARB1_Y133_V135I] | inactive: 0.699
53 | HVPEEYKPKQG [SAXO2_Y37] | inactive: 0.839
54 | RPSRQYATRDV [SCAMP3_Y35_L38R] | inactive: 0.337
55 | ATRDVYNPFET [SCAMP3_Y41_L38R] | inactive: 0.863
56 | DEEPPHRGPFC [SASH1_Y551_Y551H] | inactive: 0.584
57 | LVMFIYAIFGM [SCN1A_Y1684] | inactive: 2.32

Target: SHP2 N-SH2 domain T42A
Assay: as above
Settings: peptide library: pTyr-Var

Row | Binder | enrichment score
58 | QCTSHYPEHVC [SART3_Y541_D540H] | inactive: 1.15
59 | LVMFTYAIFGM [SCN1A_Y1684_I1683T] | inactive: 1.44
60 | LVMFIYDIFGM [SCN1A_Y1684_A1685D] | inactive: 2.88
61 | LVMFIYAISGM [SCN1A_Y1684_F1687S] | active: 3.39
62 | MSNSAYVKREV [SCN1A_Y1694_F1692S] | inactive: 0.571
63 | NKVFTYIFIME [SCN4A_Y1074_D1069N] | inactive: 1.47
64 | IIQRAYRRHLL [SCN1A_Y1926] | inactive: 0.23
65 | LVMFISAIFGM [SCN1A_Y1684_Y1684S] | inactive: 1.69
66 | DEQKKYYNAMK [SCN5A_Y1494_E1489D] | inactive: 0.54
67 | QCTSDYPEHVC [SART3_Y541] | inactive: 0.608
68 | ATLDVYNPFET [SCAMP3_Y41] | inactive: 0.724
69 | ESTPLYPMLFG [SCLY_Y280_F276S] | inactive: 0.857
70 | HVLEEYKPKQG [SAXO2_Y37_P34L] | inactive: 0.797
71 | GSESDYIIMPN [SCARB1_Y133_V135I] | inactive: 0.585
72 | HVPEEYKPKQG [SAXO2_Y37] | inactive: 0.463
73 | RPSRQYATRDV [SCAMP3_Y35_L38R] | inactive: 0.211
74 | ATRDVYNPFET [SCAMP3_Y41_L38R] | inactive: 0.835
75 | DEEPPHRGPFC [SASH1_Y551_Y551H] | inactive: 0.529
76 | LVMFIYAIFGM [SCN1A_Y1684] | inactive: 2.42

Target: SHP2 N-SH2 domain T52S
Assay: as above
Settings: peptide library: pTyr-Var

Row | Binder | enrichment score
77 | QCTSHYPEHVC [SART3_Y541_D540H] | inactive: 1.27
78 | LVMFTYAIFGM [SCN1A_Y1684_I1683T] | inactive: 1.83
79 | LVMFIYDIFGM [SCN1A_Y1684_A1685D] | active: 3.7
80 | LVMFIYAISGM [SCN1A_Y1684_F1687S] | active: 3.25
81 | MSNSAYVKREV [SCN1A_Y1694_F1692S] | inactive: 0.59
82 | NKVFTYIFIME [SCN4A_Y1074_D1069N] | inactive: 1.28
83 | IIQRAYRRHLL [SCN1A_Y1926] | inactive: 0.355
84 | LVMFISAIFGM [SCN1A_Y1684_Y1684S] | inactive: 2.38
85 | DEQKKYYNAMK [SCN5A_Y1494_E1489D] | inactive: 0.603
86 | QCTSDYPEHVC [SART3_Y541] | inactive: 0.543
87 | ATLDVYNPFET [SCAMP3_Y41] | inactive: 0.964
88 | ESTPLYPMLFG [SCLY_Y280_F276S] | inactive: 0.887
89 | HVLEEYKPKQG [SAXO2_Y37_P34L] | inactive: 0.579
90 | GSESDYIIMPN [SCARB1_Y133_V135I] | inactive: 0.557
91 | HVPEEYKPKQG [SAXO2_Y37] | inactive: 0.5
92 | RPSRQYATRDV [SCAMP3_Y35_L38R] | inactive: 0.23
93 | ATRDVYNPFET [SCAMP3_Y41_L38R] | inactive: 0.681
94 | DEEPPHRGPFC [SASH1_Y551_Y551H] | inactive: 0.465
95 | LVMFIYAIFGM [SCN1A_Y1684] | inactive: 2.72

Target: SHP2 N-SH2 domain wild-type
Assay: as above
Settings: peptide library: pTyr-Var

Row | Binder | enrichment score
96 | QCTSHYPEHVC [SART3_Y541_D540H] | inactive: 1.11
97 | LVMFTYAIFGM [SCN1A_Y1684_I1683T] | inactive: 1.67
98 | LVMFIYDIFGM [SCN1A_Y1684_A1685D] | inactive: 3.19
99 | LVMFIYAISGM [SCN1A_Y1684_F1687S] | inactive: 2.76
100 | MSNSAYVKREV [SCN1A_Y1694_F1692S] | inactive: 0.77
101 | NKVFTYIFIME [SCN4A_Y1074_D1069N] | inactive: 1.74
102 | IIQRAYRRHLL [SCN1A_Y1926] | inactive: 0.373
103 | LVMFISAIFGM [SCN1A_Y1684_Y1684S] | inactive: 2.44
104 | DEQKKYYNAMK [SCN5A_Y1494_E1489D] | inactive: 0.658
105 | QCTSDYPEHVC [SART3_Y541] | inactive: 0.656
106 | ATLDVYNPFET [SCAMP3_Y41] | inactive: 0.985
107 | ESTPLYPMLFG [SCLY_Y280_F276S] | inactive: 1.11
108 | HVLEEYKPKQG [SAXO2_Y37_P34L] | inactive: 0.758
109 | GSESDYIIMPN [SCARB1_Y133_V135I] | inactive: 0.545
110 | HVPEEYKPKQG [SAXO2_Y37] | inactive: 0.627
111 | RPSRQYATRDV [SCAMP3_Y35_L38R] | inactive: 0.345
112 | ATRDVYNPFET [SCAMP3_Y41_L38R] | inactive: 0.664
113 | DEEPPHRGPFC [SASH1_Y551_Y551H] | inactive: 0.479
114 | LVMFIYAIFGM [SCN1A_Y1684] | inactive: 2.25
